Values marked as one replicate rest on one cluster of the flow cell; about a third of the high ones do not repeat.
Tested on: ATP
Test: switch fluorescence ratio, 500 uM ATP over buffer (Cy3 cluster intensity, sum of 5 cycles each) (fold (ratio)); higher = stronger signal-on switching upon ATP binding; sequences stand for … in TCGTCGGCAGCGTCAGATGTGTATAAGAGACAGTTTTTTTTTTTTTTTTTTTTTTTTT…TC
Details: aptamer strand: ATP DNA aptamer (quencher-CACCTGGGGGAGTATTGCGGAGGAAGG + anchor), 100 nM annealed; ATP concentration: 500 uM; one replicate
Method in brief: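 The quencher-labelled ATP aptamer, at 100 nM, was annealed to Cy3-labelled switching-strand clusters on a modified Illumina MiSeq flow-cell. The clusters were imaged in selection buffer, then after 15 min with 500 uM ATP at 22 °C, and this buffer/ATP cycle ran five times with NaOH stripping and re-annealing between runs. Per-cluster fluorescence ratios, summed target-cycle over summed buffer-cycle Cy3 intensity, were averaged per switch-domain sequence. Clusters outside 100-1000 RFU were excluded.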
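Further: ATP exposure 15 min at 22 °C before imaging.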

Sequence | switch fluorescence ratio
TAGGCCTCGG | 1.01
TGCGACGTCC | 0.986
TCTGGACTGA | 1.07
CGGATGTGCC | 0.993
AGTGCGGATC | 1.01
ACCTGTATGC | 1.05
AAGTCACGCG | 1
GATGATTGTG | 0.986
TATCTCTCGT | 1.01
GTTGCTCAGC | 1.04
CTTGGACGGC | 1.01
CTCACAAATT | 0.99
AAGACACCGC | 1.1
CAGCTGAACA | 1.03
ACAGTCTACG | 1.08
CCATTCGGCA | 1.07
AGTTGTTACG | 0.981
CCTGCTGGCT | 1.15
CTAACAACGA | 1.02
GGCCCGCCCA | 1.23
GATGTTCGTA | 1.02
GTAGACCGCA | 1.17
TGCGGCTAGT | 0.988

Sequence | switch fluorescence ratio
CAATTCTTAA | 0.986
TGTCGCTAGC | 1.04
AAGCACGTAG | 1.02
GATGCTTATA | 0.98
AAAAGAATAG | 0.959
TCGTGGGGCG | 0.939
GTCGCTTTGG | 0.959
TTCAGAAGTT | 1.01
TCAATGACGT | 1.01
GGGAGTGCTA | 0.988
GCTGCCCTTA | 0.993
TTTAGGGTCC | 0.953
AAGTTGCTAC | 1.03
CGGCCACAGT | 1.04
CGATCCCTGT | 1.06
GGATTGGCA | 0.986
TTCTAGGACA | 1.02
TTGTAGCAAG | 1.6
GAGCACAGAA | 1.05
CGGTTCTAGT | 1.03
GACTGCGAAC | 2.54
TACAGTGGGG | 0.991
TACACAACCC | 1.18

Sequence | switch fluorescence ratio
CCAAAAGGCC | 1.03
TTGGTCGTCG | 0.953
TTACGTCGGC | 1.06
CAAATAGCT | 0.972
ATACCTGTGC | 1.22
GGCCAATGAC | 1.02
ATACTTGGGG | 1.02
ACTTTGGTTG | 0.994
TGTGCAAGGG | 1.04
TGGGGAGTG | 1
ACGGGAATGG | 1.04
TGATCAAATA | 1.03
GTGGACAGTT | 0.96
AAGCTGTCCG | 1.01
ATTATAGGTA | 0.961
AATGTGTCTG | 0.978
CGCCAGTCGG | 0.986
CTATATATGG | 0.962
CCGGGACTGA | 0.991
ATGGTGTTTG | 1.02
CAAAGAGATA | 1.02
TGATGCTTTC | 1.08
CTGGTCAAAA | 0.978

Sequence | switch fluorescence ratio
AGAATTCTCG | 0.978
GAATCCAACA | 0.974
GATGGTTGTT | 0.991
GGGTATTAT | 0.994
TGGAGGTTGG | 0.935
GGTGTCGCGA | 0.969
TCCTCTACTG | 1.15
TAATAACGGT | 1.01
TTTAGGTCT | 0.986
CGATAAGGTT | 0.963
AGAGATGAAG | 1
AGACCTTGAG | 0.992
GCCAGATTCT | 0.983
TGCTTACCAG | 1.03
TCTCGAGGCC | 1
CTAGAATCTG | 1.04
GCGCGGCGCA | 1.04
TACAGATGAG | 0.985
ATGTAAACGG | 1.04
AGGGTGACGC | 1
GAACTTCCAT | 1
ATAATCAATT | 1.02
ACGCCAGTCT | 1

Sequence | switch fluorescence ratio
AGCGCTCCGG | 0.995
TCAACGCGGC | 2.02
ATATGGAGCC | 0.974
GTTAAAACGC | 0.978
TTTGATCATG | 1.02
GAGGCGTTAA | 1.07
TGATTCTTC | 0.96
CGCTGTAT | 1.03
TTCGTTCCT | 1.05
AATAGCCAGG | 1.19
GTGCGTGGGG | 1
AGGGTACGCA | 1.06
CATTCAAGAA | 1
TTGTCCGGGC | 1
GTTAGAAGTT | 0.956
TGCTCCGAGC | 1.31
TGAGGTAGCC | 0.988
TGTACGTAGC | 1.15
CCAGGGCTTC | 1.05
GAGACCGCC | 1.33
AGTAAAAACG | 0.977
TGACTCAGTA | 1.03
GCCCTCTACT | 1.01

Sequence | switch fluorescence ratio
TGGCTAACTA | 1.02
TTTCCGGGCA | 1.49
TACAGAACAT | 1.1
GCCTTATCC | 1.08
GCCCGAGCCC | 1.11
CCTAATGGCA | 0.968
GTAAGATACC | 1.07
CCCCTCGTGG | 0.988
CTTCAGGCTG | 0.976
AGGTCATGGA | 0.986
TCAGAGAGCG | 1.05
TAGTCGGCTC | 1.01
AGCGGATTTC | 1.02
GCTCCAATCC | 1.73
TTGCTGATGA | 0.985
TGAGTCGCGC | 0.955
GTCGACTCAA | 1.04
ATCGACAAT | 1.02
TCACATAACG | 1.24
GATGGTTTCT | 0.968
CAGCCACTCG | 1.09
ATTTAAAGTT | 1.02
AAGCTGAGGA | 0.99

Sequence | switch fluorescence ratio
GAATTGAGGT | 0.976
GATCTTCTTT | 0.984
TCCGATATGA | 0.988
ATTGTTCGGG | 1
CACGTCAGCG | 1.04
GCCCTTTCGC | 1.02
GCTTCTGACG | 1.67
GAGTTACCCT | 1.01
CAGACTACGG | 1.02
GGTGTGCGCA | 0.969
TTCCCGAGCT | 1.07
TCCCTGACCT | 1.36
GTCAAGATGG | 0.988
TTCTTGTGGC | 0.984
AAGGTAGTA | 0.998
ATCACCTTCA | 2.16
ACACTCTT | 1.03
TGCTGGTTCG | 1.01
AGGGCCGCTG | 1.04

— the supplement of paper PMC10126150
